From publication PMC8096265, “A functional LSD1 coregulator screen reveals a novel transcriptional regulatory cascade connecting R-loop homeostasis with epigenetic regulation” (Nucleic Acids Research, 2021)

Legend:
DDX19A = assay: Equilibrium peptide binding, fluorescence anisotropy; conditions: recombinant DDX19A titrated onto 50 nM FITC-labeled H3.1 peptide (residues 16–34), 23°C, ex 495 nm / em 520 nm, 20 mM HEPES pH 7.5, 100 mM KCl, 0.1 mM DTT, 10% glycerol; at least 3 technical replicates; read-out: dissociation constant (KD)
Procedure: Determination of KD of DDX19A and H3K27 was conducted using H3.1 peptide labeled with FITC. The H3.1 peptide comprising residues 16–34 of the H3.1 tail was unmodified or trimethylated at K27. Binding was analysed using a Jasco FP-8300 spectrofluorometer with an automatic polarizer (FDP-837). Acquisitions were performed at 23°C, with excitation at 495.0 nm and emission measured at 520 nm. Slit width was set to 5 nm. 50 nM of peptide were dissolved in 0.5 ml of anisotropy buffer (20 mM HEPES pH 7.5, 100 mM KCl, 0.1 mM DTT, 10% v/v glycerol). DDX19A diluted in dialysis buffer (20 mM HEPES pH 7.5, 200 mM KCl, 1 mM Na2-EDTA, 60% v/v glycerol, 0.2 mM DTT) was added stepwise. Titrations were conducted in at least 3 technical replicates. Control experiments were conducted with dialysis buffer without protein and the fluorescence anisotropy values were corrected accordingly. For determination of the KD-values for H3.1, the data were fitted to a simple binding equilibrium: […]

[1] = tested on: RNA:DNA hybrid structures (R-loops) in NIH/3T3 cells; assay: DRIP-qPCR with S9.6 antibody, R-loops; assay type: cell-based, murine; conditions: nucleic acids digested with RNAse H before S9.6 IP, control
Procedure: Based on a detailed assessment of various DRIP protocols ([53]), DRIP was performed as described, with slight adaptations to workflow #19 ([53]). In brief, NIH/3T3 cells were harvested, washed once with 1X PBS and cross-linked in 1% formaldehyde/PBS for 10 min at room temperature. Crosslinking was quenched with 500 mM glycine for 5 min at room temperature. Cells were lysed in 300 μl of ChIP lysis buffer (50mM HEPES–KOH at pH 7.5, 140 mM NaCl, 1 mM EDTA at pH 8, 1% Triton X-100, 0.1% sodium-deoxycholate, 1% SDS) per 2 million cells for 30 min on ice and homogenized with a syringe every 10 min. Chromatin was fragmented by sonication using an EpiShear Probe Sonicator (Active Motif) for 2 × 12 cycles (20 s pulse, 30 s pause, 40% amplitude). The fragmented chromatin was supplemented with 300 mM NaCl and 50 μg of RNase A in 450 μl TE buffer (10 mM Tris–HCl pH 8, 10 mM EDTA pH 8) and incubated at 37°C for 1 h. The cross-linked D. melanogaster mononucleosomes were treated in parallel to obtain DNA for spike-in controls. To remove proteins and reverse the cross-links, the samples were treated with 15 μl of Proteinase K (20 mg/ml; Thermo Fisher Scientific) at 65°C for 16 h. […] The pellet was resuspended in 5 mM Tris–HCl, pH 8.5 and concentration was determined by NanoDrop. […]

R-loops in NIH/3T3 cells = assay: S9.6 immunofluorescence microscopy of R-loops; assay type: cell-based, murine; conditions: transient expression of RNAseH1, transfection 24 h before fixation
Procedure: NIH/3T3 cells were cultivated until 70–90% confluency on microscopy coverslips. Cells were washed three times for 5 min with 2 ml PBS^Ca2+ Mg2+ (Sigma-Aldrich). Cells were fixed for 10 min at room temperature in 4% paraformaldehyde. Cells were washed as described and permeabilized with 0.2% ice-cold TritonX-100 in PBS for 5 min. Cells were blocked in 2 ml 5% non-fat dried milk in PBS^Ca2+ Mg2+ for 1h at room temperature. Primary antibody binding was performed overnight at 4°C with a concentration of 4 μg/ml antibody in PBS^Ca2+ Mg2+/5% non-fat dried milk powder. Secondary antibody binding was performed at room temperature for 2 h with a concentration of 0.5 μg/ml antibody in PBS^Ca2+ Mg2+/5% milk powder. Cells were stained with 1μg/ml DAPI in PBS^Ca2+ Mg2+ for 3 min, washed again with PBS and mounted on microscopy slides using Mowiol® 4–88 (Sigma-Aldrich).
For the quantification of the S9.6 staining, samples were analysed on a Zeiss Axio Observer.Z1 microscope equipped with a Plan-Apochromat 63×/1.40 Oil DIC M27 objective and an AxioCam MRm camera. […] Quantitative image analysis was done with CellProfiler™ version 2.2 ([56]). […]

[2] = tested on: R-loops from NIH/3T3 cell lysate; assay: S9.6 antibody IP, co-precipitation of LSD1 and DDX19A; assay type: cell-based, murine; conditions: RNAseH1 treatment before IP with S9.6 antibody, Western blot
Procedure: 100 μl Dynabeads® Protein G were pre-blocked with 0.5% BSA/PBS for 2 h at 4°C. 10 × 10^6 non-crosslinked NIH/3T3 cells were harvested, washed once in 1× PBS and lysed in 1 ml Cell Lysis Buffer (85 mM KCl, 5 mM HEPES pH 8, 0.5% NP-40, cOmplete™ EDTA-free PIC) for 15 min on ice. Nuclei were collected by spinning 1 min at 15 000 × g, 4°C. The pellet was resuspended in 750 μl RSB buffer (10 mM Tris–HCl pH 7.5, 200 mM NaCl, 2.5 mM MgCl2, cOmplete™ EDTA-free PIC) supplemented with 0.2% sodium-deoxycholate, 0.1% SDS, 0.05% sodium-lauroyl-sarcosinate and 0.5% Triton X-100. Cells were sonicated for 4 min in an EpiShear Probe Sonicator (20 s pulse, 30 s pause, 40%). After taking 5% as input, samples were transferred to a 15 ml falcon tube and diluted 1:4 by addition of 2.3 ml RSB with 0.5% Triton X-100 (RSB+T). The samples were subjected to pre-clearing with 5 μg mouse IgG and 35 μl Dynabeads® Protein G for 1 h at 4°C. Magnetic beads were locked and the supernatant was split into three Eppendorf tubes. For the S9.6 antibody-specificity control, 40 U of RNAse H (NEB) were added to one of the tubes and all samples were incubated for 10 min at 37°C before adding the IP antibodies. The samples were subjected to IP with 4 μg of either the S9.6 antibody or mouse IgG and 32 μl pre-blocked beads per sample. 10 ng RNase A was added to each tube before rotating at 4°C for 2.5 h. […]

Substance	Kd (DDX19A) [nM]	DRIP signal after RNAseH1 incubation [1]	R-loop signal (S9.6 immunostaining) (R-loops in NIH/3T3 cells)	co-precipitation of LSD1 or DDX19A with R-loops [2]
H3K27me3 peptide: FITC-labeled H3.1 peptide comprising residues 16–34 of the H3.1 tail, trimethylated at K27	82	–	–	–
RNAseH1: Ribonuclease H1, known to specifically degrade the RNA of RNA:DNA hybrid structures	–	reduced the DRIP signal	strong reduction of the R-loop signal	attenuated
